Results on 13 compounds are retold here after the supplement of paper PMC4604168 (melanoma cell lines).

Some of the results follow. Single values are uncertain, as repeats are few or missing.

Some test systems named below: 501Mel; A101D; A2058; A375.
Common to all, as to assay: cell count relative to DMSO control; melanoma cells; higher = more viable cells
Holding throughout (details): library dose: standard library concentration; 72 h
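Note: cells treated in 1,536-well plates, then fixed and DAPI-stained, with nuclei counted from automated high-throughput microscope images.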

As to `COc1ccc(C2=N[C@@H](c3ccc(Cl)cc3)[C@@H](c3ccc(Cl)cc3)N2C(=O)N2CCNC(=O)C2)c(OC(C)C)c1` [Nutlin-3] + CC(C)CCN1c2nc(Nc3cc(F)c(O)c(F)c3)ncc2N(C)C(=O)C1C [BID1870] (first compound 0.5 µM, partner dose 1 µM), the cell count in the experiment on 501Mel worked out at 76%; in the experiment with A101D, 61.6%; with A2058, 99.5%; in the experiment with A375, 76.6%.
Taken in the same sequence, the figures for `Cc1cn(-c2cc(NC(=O)c3ccc(C)c(Nc4nccc(-c5cccnc5)n4)c3)cc(C(F)(F)F)c2)cn1` [nilotinib] + COc1cc2ncnc(Nc3ccc(Oc4ccccc4)cc3)c2cc1OC [SrcI1] (first compound 1 µM, partner dose 10 µM) were 72.7%, 62.8%, 77.2% and 129%.
Taken in the same sequence, the figures for `COc1ccc(C2=N[C@@H](c3ccc(Cl)cc3)[C@@H](c3ccc(Cl)cc3)N2C(=O)N2CCNC(=O)C2)c(OC(C)C)c1` [Nutlin-3] + Cn1cc(/C=C2\C(=O)Nc3cccnc32)c2ccccc21 [GW441756] (first compound 0.5 µM, partner dose 2 µM) were 86.9%, 65.2%, 96.4% and 93.9%.
On the same counts, the results for `Cc1cc(Nc2cc(N3CCN(C)CC3)nc(/C=C/c3ccccc3)n2)n[nH]1` + Cn1cc(/C=C2\C(=O)Nc3cccnc32)c2ccccc21 [GW441756] (first compound 0.2 µM, partner dose 2 µM) are 74.3%, 80.7%, 88.2% and 114%.
In the case of `Cc1cn(-c2cc(NC(=O)c3ccc(C)c(Nc4nccc(-c5cccnc5)n4)c3)cc(C(F)(F)F)c2)cn1` [nilotinib] + O=C(O)C(=O)Nc1sc2c(c1C(=O)O)CCNC2 [TCS401] (first compound 1 µM, partner dose 8.33333 µM), the cell count in the experiment on 501Mel was determined as 105%; with A101D it was 93.6%; in the experiment on A2058, 107%; with A375, 202%.
In the case of `Cc1cn(-c2cc(NC(=O)c3ccc(C)c(Nc4nccc(-c5cccnc5)n4)c3)cc(C(F)(F)F)c2)cn1` [nilotinib] + CC(C)CCN1c2nc(Nc3cc(F)c(O)c(F)c3)ncc2N(C)C(=O)C1C [BID1870] (first compound 1 µM, partner dose 1 µM), the cell count stood at 73.2% in the experiment with 501Mel, 79.3% in the experiment on A101D, 86% with A2058 and 114% with A375.
On the same counts, the results for `Cc1cn(-c2cc(NC(=O)c3ccc(C)c(Nc4nccc(-c5cccnc5)n4)c3)cc(C(F)(F)F)c2)cn1` [nilotinib] + Oc1cc(-c2nc(-c3ccccc3)[nH]c2-c2ccncc2)ccc1Cl [L779450] (first compound 1 µM, partner dose 1 µM) are 77.3%, 67.9%, 82.7% and 116%.
On the same counts, the results for `Cc1cc(Nc2cc(N3CCN(C)CC3)nc(/C=C/c3ccccc3)n2)n[nH]1` + CCc1ccc(CCOc2ccc(CC3SC(=O)NC3=O)cc2)nc1 [pioglitazone] (first compound 0.2 µM, partner dose 10 µM) are 71.2%, 79.1%, 81% and 101%.
In the case of `COc1ccc(C2=N[C@@H](c3ccc(Cl)cc3)[C@@H](c3ccc(Cl)cc3)N2C(=O)N2CCNC(=O)C2)c(OC(C)C)c1` [Nutlin-3] + COc1cc2ncnc(Nc3ccc(Oc4ccccc4)cc3)c2cc1OC [SrcI1] (first compound 0.5 µM, partner dose 10 µM), the cell count in the experiment with 501Mel is 72.3%; in the experiment on A101D, 63.9%; in the experiment on A2058, 83.7%; with A375 it was 148%.
On to `Cn1c(=O)n(-c2ccc(C(C)(C)C#N)cc2)c2c3cc(-c4cnc5ccccc5c4)ccc3ncc21` + O=C(O)C(=O)Nc1sc2c(c1C(=O)O)CCNC2 [TCS401] (first compound 0.02 µM, partner dose 8.33333 µM), for which the cell count in the experiment with 501Mel amounted to 60.9%; in the experiment with A101D, 77.6%; in the experiment with A2058 it was 71.6%; in the experiment with A375, 113%.
On to `Cn1c(=O)n(-c2ccc(C(C)(C)C#N)cc2)c2c3cc(-c4cnc5ccccc5c4)ccc3ncc21` + O=C1NC(=O)/C(=C/c2ccc(-c3ccc(F)cc3O)o2)S1 [AS252424] (first compound 0.02 µM, partner dose 5 µM), for which the cell count in the experiment with 501Mel was found to be 68.5%; in the experiment on A101D, 84.7%; in the experiment with A2058 it was 73%; in the experiment on A375 it was 103%.
Take `Cc1cn(-c2cc(NC(=O)c3ccc(C)c(Nc4nccc(-c5cccnc5)n4)c3)cc(C(F)(F)F)c2)cn1` [nilotinib] + Oc1nc(-c2ccc(C(F)(F)F)cc2)nc2c1CSCC2 [XAV939] (first compound 1 µM, partner dose 10 µM): the cell count with 501Mel is 75.3%; in the experiment on A101D, 102%; in the experiment on A2058, 75.3%; in the experiment on A375, 126%.
In the case of `Cn1c(=O)n(-c2ccc(C(C)(C)C#N)cc2)c2c3cc(-c4cnc5ccccc5c4)ccc3ncc21` + CCN(CC)CCCCNc1ncc2cc(-c3cc(OC)cc(OC)c3)c(NC(=O)NC(C)(C)C)nc2n1 [PD173074] (first compound 0.02 µM, partner dose 0.5 µM), the cell count worked out at 75.5% with 501Mel, 70.5% in the experiment with A101D, 61.9% in the experiment on A2058 and 77.3% in the experiment with A375.
